Source: PMC4336329 (PLoS ONE, 2015)
The whole screen tested about 310,000 compounds, of which about 2,200 (0.71%) showed an effect of 50% or more. The effect is printed as a negative number. The list shows a part of the results.

Target: human ether-à-go-go-related gene (hERG) potassium channel (human, UniProt Q12809)
Test: primary screen, population patch clamp on CHO cells stably expressing hERG

Chain of human ether-à-go-go-related gene (hERG) potassium channel (Q12809 whole entry, looked up): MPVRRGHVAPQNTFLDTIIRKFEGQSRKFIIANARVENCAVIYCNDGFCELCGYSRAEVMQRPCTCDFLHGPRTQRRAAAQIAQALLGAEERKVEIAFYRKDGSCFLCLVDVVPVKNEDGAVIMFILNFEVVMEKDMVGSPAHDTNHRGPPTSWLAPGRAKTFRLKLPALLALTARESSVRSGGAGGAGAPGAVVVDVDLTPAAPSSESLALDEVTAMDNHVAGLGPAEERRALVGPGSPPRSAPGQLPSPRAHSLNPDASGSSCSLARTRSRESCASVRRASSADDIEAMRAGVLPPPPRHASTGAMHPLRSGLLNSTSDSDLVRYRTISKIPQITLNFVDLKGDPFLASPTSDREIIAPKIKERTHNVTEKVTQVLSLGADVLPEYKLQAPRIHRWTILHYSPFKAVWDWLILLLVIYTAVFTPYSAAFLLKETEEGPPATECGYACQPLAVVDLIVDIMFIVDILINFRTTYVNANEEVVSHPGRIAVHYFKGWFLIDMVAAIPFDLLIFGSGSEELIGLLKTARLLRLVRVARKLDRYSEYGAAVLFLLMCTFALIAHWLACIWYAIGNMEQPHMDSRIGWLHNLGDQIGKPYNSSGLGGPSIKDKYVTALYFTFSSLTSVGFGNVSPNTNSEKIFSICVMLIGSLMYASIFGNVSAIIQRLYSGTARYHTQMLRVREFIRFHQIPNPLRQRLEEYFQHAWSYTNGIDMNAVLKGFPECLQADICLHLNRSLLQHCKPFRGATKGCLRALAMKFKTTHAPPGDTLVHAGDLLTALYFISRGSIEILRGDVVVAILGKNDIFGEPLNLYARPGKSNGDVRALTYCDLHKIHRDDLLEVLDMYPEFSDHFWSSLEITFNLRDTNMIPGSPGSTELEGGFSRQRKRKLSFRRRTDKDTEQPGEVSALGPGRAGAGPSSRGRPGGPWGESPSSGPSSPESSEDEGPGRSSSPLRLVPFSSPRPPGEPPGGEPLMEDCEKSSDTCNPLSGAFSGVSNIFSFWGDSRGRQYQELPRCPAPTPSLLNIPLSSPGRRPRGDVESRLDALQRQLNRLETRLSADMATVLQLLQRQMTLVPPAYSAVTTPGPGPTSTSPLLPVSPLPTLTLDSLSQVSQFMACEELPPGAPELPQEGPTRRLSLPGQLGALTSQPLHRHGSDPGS

Point of comparison: Cc1cc(/C=C2\NC(=S)N(C)C2=O)ccc1N1CCCC1, “hERG current change (%, negative = inhibition) at 1uM” value 15%. Against it:
- COCCNC(=S)N/N=C(\C)c1ccc2cc(OC)ccc2c1 — higher, 20.6%
- CN(C)c1nc(N(C)C)nc(N2CC(=O)N(c3ccccc3)C2=N)n1 — lower, 9.67%
- CC(SCc1ccccc1)C(=O)Nc1ccccc1-c1ccccc1 (stereo not drawn) — lower, -6.58%
- COc1ccc(-c2noc(N3CCC(C(=O)Nc4ccc(F)cc4F)CC3)n2)cc1 — lower, -5.2%
- Cc1[nH]c2ccccc2c1C(=O)C(=O)NCc1ccncc1 — higher, 15.4%
- C[C@@H]1C(=O)O[C@H]2[C@H](O)[C@@]34[C@H]5C[C@@H](C(C)(C)C)[C@]36[C@@H](OC(=O)[C@@H]6O)O[C@@]4(C(=O)O5)[C@@]12O — higher, 15.7%
- CC(=O)c1ccc(OC(=O)CCN2c3ccccc3Sc3ccccc32)cc1 — higher, 17%
- COc1ccc(CN2CCNC(=O)C2CC(=O)NCCC2=CCCCC2)c(F)c1 (stereo not drawn) — lower, -8.51%
- CCOC(CNC(=O)CN1C(=O)COc2ccc(S(=O)(=O)N3CCOCC3)cc21)OCC — higher, 17.6%
- COc1cccc(NC(=O)NC2CCCc3ccccc32)c1 (stereo not drawn) — lower, -7.42%
- CN(C(=O)COC(=O)CNC(=O)CNC(=O)c1ccc(Cl)cc1Cl)c1ccccc1 — higher, 17%
- O=C(CC(=O)NC1CCCCC1)N/N=C/c1ccc(Cl)cc1 — lower, 4.6%
- O=C(NC1CCCCC1)c1ccc(CS(=O)Cc2ccccc2Cl)o1 (stereo not drawn) — lower, 5.07%
- COc1ccc(S(=O)(=O)N2CCN(C)CC2)cc1NC(=O)c1ccccc1F — lower, 13.2%
- O=C(O)c1nn(Cc2ncc(-c3cccc(Cl)c3)o2)c(=O)c2ccccc12 — lower, 2.72%
- CCN(CC)S(=O)(=O)c1ccc2c(c1)N(CC(=O)NCC1CCCO1)C(=O)CO2 (stereo not drawn) — lower, 12.1%
- O=C(C1CCN(S(=O)(=O)N2CCOCC2)CC1)N1CCN(c2ccccc2F)CC1 — lower, 13.2%
- Cc1cc(C)c(C(=O)Nc2ccccc2)c(CC(C)(C)C(=O)O)c1 — lower, 14.6%
- COc1ccc(-n2ncc3c(=O)n(CC(=O)Nc4ccc5c(c4)OCCO5)cnc32)cc1 — higher, 21.5%
- Cc1cc(NC(=O)C2CCCN2C(=O)Nc2cccc(Cl)c2)ccc1-n1cnnn1 (stereo not drawn) — lower, 0.706%
- Cn1c(=O)c2c(nc(Br)n2Cc2ccc3ccccc3c2)n(C)c1=O — lower, 5.83%
- Cc1ccc(S(=O)(=O)c2c(N)n(Cc3ccco3)c3nc4ccccc4nc23)cc1 — lower, 6.22%
- CC(=O)NC(Cc1ccc(F)cc1)C(=O)NC1CCN(S(=O)(=O)c2ccccc2)CC1 (stereo not drawn) — lower, 11%
- Cc1cc(F)ccc1NC(=O)c1cccnc1 — lower, -4.47%
- Cc1ccc(N=C2N=C(N)c3ccccc32)c(C)c1 — lower, 0.355%
- O=C(Nc1ccccc1C(=O)NC(Cc1ccc(O)cc1)C(=O)O)c1ccccc1 (stereo not drawn) — lower, 7.5%
- CCOC(=O)c1cnc2ccc(OCC)cc2c1NCc1ccccc1 — lower, -12.8%
- COc1ccc2nc(NC3=NC(c4ccccc4)CC(=O)N3)nc(C)c2c1 (stereo not drawn) — lower, -0.781%
- Cc1ccc(S(=O)(=O)NCC(=O)N/N=C/c2ccc(Cl)cc2Cl)cc1 — lower, 10%
- CCOc1ccc(CCNS(=O)(=O)c2ccc3c(c2)NC(=O)CO3)cc1OCC — lower, -4.15%
- Cc1cc(OCc2nnc(SC(C)C(=O)O)n2-c2ccccc2)ccc1Cl (stereo not drawn) — higher, 15.5%
- Cc1cc(C(=O)NCc2cc(F)cc3c2OCOC3)nn1C — lower, 9.31%
- Cc1ccccc1OCC1Cc2c(nc(N)c(C#N)c2N)O1 (stereo not drawn) — lower, 2.98%
- CCN(CC)c1cc(C)c(C#N)c2nc3ccccc3n12 — lower, 9.95%
- Cc1ccc(OCCNCC(O)COc2ccccc2)cc1.O=C(O)C(=O)O (stereo not drawn) — lower, 5.43%
- COc1cc(CCC(=O)Nc2cccc(C(F)(F)F)c2)cc(OC)c1OC — lower, 4.62%
- CNC(=O)Nc1cc(NC(=O)NC)cc(C(F)(F)F)c1 — lower, 7.76%
- Cn1cc(Br)c(C(=O)NNC(=O)c2ccc(Cl)cc2)n1 — lower, 2.2%
- COc1ccc(Cl)cc1NC(=O)C1Cc2ccccc2CN1S(C)(=O)=O (stereo not drawn) — higher, 16.6%
- CC1CC(C)CN(CCCNC(=O)Cn2ncc3c([nH]c4ccccc43)c2=O)C1 (stereo not drawn) — lower, -1.27%
- COc1cccc(N2CCN(C(=O)c3oc4ccccc4c3NC(=O)Cc3ccc(OC)c(OC)c3)CC2)c1 — lower, 13.3%
- CCCOC(=O)c1ccc(Oc2cn[nH]c2-c2ccc(OCC)cc2O)cc1 — lower, 11.1%
- Cc1nc(CNC(=O)CC2C(=O)NCCN2Cc2ccoc2)nc2c1CCCC2 (stereo not drawn) — lower, 11.8%
- O=C(Cc1c[nH]c2ccccc12)OCC(=O)c1ccccc1 — higher, 16.5%
- O=C(COC(=O)Cn1cnc2ccccc21)Nc1cc(S(=O)(=O)N2CCOCC2)ccc1Cl — lower, 11.1%
- Cc1ccc(CSc2nnc(-c3ccc(S(=O)(=O)N4CCCC4)cc3)o2)cc1 — lower, 6.97%
- O=C(COC(=O)C1(c2ccc(F)cc2)CCCC1)NCc1ccc2c(c1)OCO2 — lower, -3.4%
- Cc1nn(-c2ccccc2)cc1/C=N/NC(=O)c1cccs1 — lower, 9.49%
- CNC(=O)C1CCN(S(=O)(=O)c2c(C)noc2/C=C/c2ccc(C)cc2)CC1 — lower, 10.2%
- Cl.O=C(Nc1ncccc1Cl)c1ccc2c(c1)OCCO2 — lower, 10%
- CCOC(=O)C1=C(CN2CCc3ccccc32)NC(=O)NC1c1cccc([N+](=O)[O-])c1 (stereo not drawn) — lower, 2.39%
- Cc1ccc(-c2ccc(/C=N/NC(N)=S)o2)cc1 — lower, -23.3%
- Cc1cccc(C)c1NC(=O)C(C)c1ccc(-c2ccccc2)c(F)c1 (stereo not drawn) — higher, 19.2%
- Cc1[nH]n(C(N)=S)c(=O)c1N=Nc1cc(-c2ccc(Br)cc2)[nH]n1 — higher, 16%
- CCOC(=O)C1(Cc2cccc(F)c2)CCN(C(=O)Cc2cccnc2)CC1 — lower, 6.69%
- COc1ccc(CNC(=O)C2CCCN(S(=O)(=O)c3ccccc3)C2)cc1 (stereo not drawn) — lower, 13.1%
- COc1ccc(C(CNC(=O)COc2ccc([N+](=O)[O-])cc2)N2CCCCC2)cc1 (stereo not drawn) — lower, -52.1%
- CCCCc1nn(-c2cc(Cl)ccc2OC)c2c1C(=O)CC(C)(C)C2 — lower, -13%
- CNc1nccc(-c2ccc(F)cc2)c1C#N — lower, 7.91%
- O=C(Nc1ccc(Cl)cc1)OC(CN1CCCCC1)C(F)(F)F (stereo not drawn) — lower, 6.47%
- Cc1ccc(S(=O)(=O)N(C)c2ccc(C(=O)Nc3c(C)n(C)n(-c4ccccc4)c3=O)cc2)cc1 — lower, 4.15%
- COc1cc(NC(=O)c2cccs2)c(OC)cc1NC(=O)CCC(=O)Nc1ccc(C)cc1 — lower, -1.36%
- O=C1NC(=Nc2cccc(O)c2)S/C1=C\c1cccnc1 — lower, 10.7%
- Cc1ccc(C)c(N)c1 — lower, 7.96%
- O=C(Nc1cc(C(F)(F)F)ccc1N1CCOCC1)c1cn2ccccc2n1 — lower, 2.85%
- CCOc1ccc2nc(SC(CC)C(=O)Nc3cc(C)on3)sc2c1 (stereo not drawn) — higher, 19.8%
- O=C(CNC(=O)c1cccs1)c1ccc([N+](=O)[O-])cc1 — lower, 4.29%
- CC/C(=N\NC(=O)c1ccc(Br)cc1)c1ccccc1 — lower, 12.6%
- CCOC(=O)CSc1ccc2nnc(-c3ccccc3)n2n1 — lower, -3.16%
- COc1ccc(N2CCN(C(=O)COC(=O)c3cccc(S(=O)(=O)Nc4ccccc4OC)c3)CC2)cc1 — lower, -17.8%
- Cc1cc(CNC(=O)COc2ccc(F)cc2)c2ccccc2n1 — lower, 10.6%
- CC(NC(=O)COC(=O)/C=C/c1ccco1)c1ccccc1 (stereo not drawn) — lower, 8.61%
- O=C(NC1CCCCCCC1)c1ccc(S(=O)(=O)N2CCCC2)cc1 — lower, 10.8%
- Cc1cc(N(C)C)c(C#N)c(N2CCCCC2)n1 — lower, 6.47%
- COC(=O)CSc1nnc(COc2cccc3ccccc23)o1 — lower, 14.7%
- Cc1cccc(N2C(=O)CC(Sc3nnc(C)s3)C2=O)c1 (stereo not drawn) — lower, 13.5%
- Cc1ccc(S(=O)(=O)N2CCC(=O)N(CCOCc3cccc(C(F)(F)F)c3)CC2)cc1 — lower, 1.61%
- Cc1ccc(CCCOC(=O)CN2CCCCC2)cc1 — lower, 1.99%
- O=C(CCc1ccccc1)Nc1nc2n(n1)C(c1ccc(Cl)cc1)CC(=O)N2 (stereo not drawn) — lower, 4.88%
- Cc1ccc(SCC(=O)NC2CC3CCC(C2)N3C)cc1 (stereo not drawn) — lower, 8.52%
- Cc1c([C@H]2[C@@H](CC#N)C2(C)C)c2ccccc2n1C — lower, -2.83%
- CSC1=NCCCN1C(=O)c1c(-c2ccccc2Cl)noc1C — lower, 8.75%
- Cc1ccc(NC(=O)C2CCCN2C(=O)NC2CCCCC2)cc1C (stereo not drawn) — lower, 8.06%
- c1ccc(CSc2ccc(-c3ccc4c(c3)OCO4)nn2)cc1 — lower, 9.42%
- COc1cc(NC(=O)CN2CCN(c3ccccn3)CC2)cc(OC)c1OC — lower, 11.6%
- COc1ccc(-c2c[n+]3c(n2-c2ccc(C)cc2)CCCCC3)cc1.[Br-] — lower, -2.01%
